Measured values as given in the supplement of paper PMC8728848.
The list shows a part of the results.

Columns and labels:
Assay in all cases: glycan array binding signal (z-score within array); higher = stronger binding
Conditions in all cases: glycan notation: IUPAC condensed, linker removed
[1] = biological target: Glc(b1-4)Glc(b1-4)Glc(b1-4)Glc(b1-4)Glc
In short: (§1)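 Glycan array data came from 3228 arrays in the Consortium for Functional Glycomics database, and only arrays with an available protein sequence were kept. Glycan names were put into IUPAC-condensed notation, and columns mapping to the same glycan were averaged. The binding signal is a within-array Z-score, averaged across arrays of one protein sequence run at different concentrations or buffers and across linkers. A negative Z-score can be read as non-binding.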

[2] = biological target: Glc(b1-4)Glc(b1-4)Glc(b1-4)Glc(b1-4)Glc(b1-4)Glc
In short: as §1

[3] = biological target: Glc(b1-4)Glc(b1-4)Glc(b1-4)Glc(b1-4)Glc(b1-4)Glc(b1-4)Glc
In short: as §1

[4] = biological target: Glc(b1-4)Glc(b1-4)Glc(b1-4)Glc(b1-4)Glc(b1-4)Glc(b1-4)Glc(b1-4)Glc
In short: as §1

[5] = biological target: Glc(b1-4)Glc(b1-4)Glc(b1-4)Glc(b1-4)Glc(b1-4)Glc(b1-4)Glc(b1-4)Glc(b1-4)Glc
In short: as §1

[6] = biological target: Glc(b1-4)Glc(b1-4)Glc(b1-4)Glc(b1-4)Glc(b1-4)Glc(b1-4)Glc(b1-4)Glc(b1-4)Glc(b1-4)Glc
In short: as §1

[7] = biological target: Glc(b1-4)Glc(b1-4)Glc(b1-4)Glc(b1-4)Glc(b1-4)Glc(b1-4)Glc(b1-4)Glc(b1-4)Glc(b1-4)Glc(b1-4)Glc
In short: as §1

[8] = biological target: Glc(b1-4)Glc(b1-4)Glc(b1-4)Glc(b1-4)Glc(b1-4)Glc(b1-4)Glc(b1-4)Glc(b1-4)Glc(b1-4)Glc(b1-4)Glc(b1-4)Glc
In short: as §1

[9] = biological target: Glc(b1-4)Glc(b1-4)Glc(b1-4)Glc(b1-4)Glc(b1-4)Glc(b1-4)Glc(b1-4)Glc(b1-4)Glc(b1-4)Glc(b1-4)Glc(b1-4)Glc(b1-4)Glc
In short: as §1

[10] = biological target: Glc(b1-6)Glc
In short: as §1

[11] = biological target: Glc(b1-6)Glc(b1-6)Glc
In short: as §1

[12] = biological target: Glc(b1-6)Glc(b1-6)Glc(b1-6)Glc
In short: as §1

[13] = biological target: Glc(b1-6)Glc(b1-6)Glc(b1-6)Glc(b1-6)Glc
In short: as §1

[14] = biological target: Glc(b1-6)Glc(b1-6)Glc(b1-6)Glc(b1-6)Glc(b1-6)Glc
In short: as §1

[15] = biological target: Glc(b1-6)Glc(b1-6)Glc(b1-6)Glc(b1-6)Glc(b1-6)Glc(b1-6)Glc
In short: as §1

[16] = biological target: Glc(b1-6)Glc(b1-6)Glc(b1-6)Glc(b1-6)Glc(b1-6)Glc(b1-6)Glc(b1-6)Glc
In short: as §1

[17] = biological target: Glc(b1-6)Glc(b1-6)Glc(b1-6)Glc(b1-6)Glc(b1-6)Glc(b1-6)Glc(b1-6)Glc(b1-6)Glc
In short: as §1

[18] = biological target: Glc(b1-6)Glc(b1-6)Glc(b1-6)Glc(b1-6)Glc(b1-6)Glc(b1-6)Glc(b1-6)Glc(b1-6)Glc(b1-6)Glc
In short: as §1

[19] = biological target: Glc(b1-6)Glc(b1-6)Glc(b1-6)Glc(b1-6)Glc(b1-6)Glc(b1-6)Glc(b1-6)Glc(b1-6)Glc(b1-6)Glc(b1-6)Glc
In short: as §1

[20] = biological target: Glc(b1-6)Glc(b1-6)Glc(b1-6)Glc(b1-6)Glc(b1-6)Glc(b1-6)Glc(b1-6)Glc(b1-6)Glc(b1-6)Glc(b1-6)Glc(b1-6)Glc
In short: as §1

[21] = biological target: Glc(b1-6)Glc(b1-6)Glc(b1-6)Glc(b1-6)Glc(b1-6)Glc(b1-6)Glc(b1-6)Glc(b1-6)Glc(b1-6)Glc(b1-6)Glc(b1-6)Glc(b1-6)Glc
In short: as §1

[22] = biological target: Man(b1-4)Man(b1-4)Man(b1-4)Man
In short: as §1

[23] = biological target: Man(b1-4)Man(b1-4)Man(b1-4)Man(b1-4)Man
In short: as §1

[24] = biological target: Man(b1-4)Man(b1-4)Man(b1-4)Man(b1-4)Man(b1-4)Man
In short: as §1

[25] = biological target: Xyl(b1-4)Xyl(b1-4)Xyl(b1-4)Xyl(b1-4)Xyl
In short: as §1

[26] = biological target: Xyl(b1-4)Xyl(b1-4)Xyl(b1-4)Xyl(b1-4)Xyl(b1-4)Xyl
In short: as §1

Measured: glycan array binding signal (z-score)

B1: Dectin-1 (Homo sapiens), Q9BXN2 (protein)
chain: TMAIWRSNSGSNTLENGYFLSRNKENHSQPTQSSLEDSVTPTKAVKTTGVLSSPCPPNWIIYEKSCYLFSMSLNSWDGSKRQCWQLGSNLLKIDSSNELGFIVKQVSSQPDNSFWIGLSRPQTEVPWLWEDGSTFSSNLFQIRTTATQENPSPNCVWIHVSVIYDQLCSVPSYSICEKKFSM
-0.082: [22]
-0.094: [9]
-0.121: [23]
-0.12: [25]
-0.136: [24]
-0.11: [10]
-0.145: all other assays above
